Measurements as given in US20060045883A1, “Anti-cancer vaccines” (priority 2004, published 2006).
Like-named read-outs stand apart in the source and are kept apart here.

Tests used:
T2 cells = assay: Peptide-specific cytotoxicity of peptide-elicited CTL lines against peptide-loaded T2 cells; conditions: T2 cells loaded with the same peptide; 4-hr assay, varying E:T
Protocol: CTL cytotoxicity assay. A semiautomated minicytotoxicity assay was used to determine specific lysis as described previously (Molldrem, 2000; Molldrem et al., 1996). Briefly, effector cells were prepared in doubling dilutions from 6×10^3 to 25×10^3 cells/well and were plated in 40 μl, 60-well Terasaki trays (Robbins Scientific, Sunnyvale, Calif., USA) with six replicates per dilution. Target cells (T2 cells, marrow-derived leukemic cells, or BM from a healthy donor) at a concentration of 2×10^6 cells/ml were stained with 10 μg/ml of Calcein-AM (Molecular Probes Inc.) for 60 min at 37° C. After washing three times in CM plus 10% AB, target cells were resuspended at 10^5 cells/ml, and 10^3 target cells in 10 μl medium were added to each well containing effector cells. Wells with target cells alone and medium alone were used for maximum (max) and minimum (min.) fluorescence emission, respectively. After 4 hr incubation at 37° C. in 5% CO2, 5 μl FluoroQuench (One Lambda Inc., Canoga Park, Calif., USA) was added to each well, and the trays were centrifuged for 1 min at 60 g before measurement of fluorescence using an automated CytoFluor II plate reader (PerSeptive Biosystems, Framingham, Mass., USA). The percentage of lysis was calculated as follows: % lysis={1−[(mean experimental mission−mean min.)/(mean max−mean min.)]}×100%.
Induction of Primary CTL responses to peptides. These peptides were next used to stimulate T cells specific for peptide-coated targets. PBMC from a normal healthy donor heterozygous for HL-A2.1 were stimulated with peptide-pulsed T2 cells. The T2 cell line has been used by others as an antigen presenting cell for the generation of peptide-specific CTL. Briefly, T2 cells (which co-express the costimulatory molecule B7.1) were washed 3 times in serum-free RPMI culture media supplemented with penicillin/streptomycin and glutamine (CM) and incubated with peptide at 20 μg/mL for 2 hr in CM.
The five MPO peptides discussed above, were used to stimulate T cells specific for peptide-coated targets. […]

[1] = tested on: PBMC from an HLA-A2.1+ healthy donor; conditions: for tetramer staining decay t1/2: 4° C., BB7.2 present

Sequence: LIQPFMFRL [MY5]
- peptide-specific lysis by CTL line generated against the peptide (T2 cells): No peptide specific CTL lines could be elicited

Sequence: LLSYFKQPV [MY3]
- peptide-specific lysis by CTL line generated against the peptide (T2 cells): No peptide specific CTL lines could be elicited

Sequence: VLQELNVTV [PR1]
- fold longer t1/2, CTL elicited with 0.2 μM vs 20 μM PR1 [1]: 3 fold
- high intensity PR1/HLA-A2 tetramer-staining CTL elicited ([1]; 0.2 μM PR1, weekly stimulation for 28 days): 1.3%
- low avidity PR1-specific CTL elicited ([1]; 20 μM PR1, weekly stimulation for 28 days): 3.1%
- bulk culture CTL double-positive for anti-CD8 and PR1-tetramer ([1]; 32 day-old PR1-stimulated CTL culture): 4.3%
- median channel of fluorescence (MCF) of tetramer staining ([1]; CTL elicited with 0.2 μM PR1): 293
- median channel of fluorescence (MCF) of tetramer staining ([1]; CTL elicited with 2 μM PR1): 211
- median channel of fluorescence (MCF) of tetramer staining ([1]; CTL elicited with 20 μM PR1): 93
- tetramer staining decay t1/2 ([1]; PR1-CTL elicited with 0.2 μM PR1): 58 min
- tetramer staining decay t1/2 ([1]; PR1-CTL elicited with 20 μM PR1): 19 min
- fraction of CTL line specific for PR1 (PR1-tetramer+ CD8+) ([1]; day 17 CTL line elicited against PR1): 2.4%
- PR1-CTL induced ([1]; stimulation with ≦0.02 μM PR1): < 0.1%

Sequence: SLWRRPFNV [MY1]
- peptide-specific lysis by CTL line generated against the peptide (T2 cells): No peptide specific CTL lines could be elicited
